Measured values published in PubChem BioAssay AID686978 (National Center for Advancing Translational Sciences (NCATS), 2013).
Among all 420,000 compounds or so, about 64,000 (15%) were called active. Inconclusive results, whose numbers are uncertain, are shown with a selection of clear calls. Calls come from the whole dose curve; as a rule, active = well fitted inhibition curve with a large enough effect; inconclusive = small, poorly fitted or top-dose-only effect; inactive = flat fitted curve, though single readings scatter. Potencies of inconclusive entries are left out as doubtful fits.

Assay: qHTS for Inhibitors of human tyrosyl-DNA phosphodiesterase 1 (TDP1): qHTS in cells in absence of CPT; note: nearly all actives have a fitted effect of over 55% in size
Conditions: DT40 Tdp1-/- hTDP1 cells, no CPT, ATP luminescence, 48 h; activity change, negative = growth inhibition: at 46.2 µM (top of the series) unless noted
Procedure, shortened: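 Cells were dispensed at 400 per well, compounds added by pin tool, plates incubated ≥48 hr at 37 °C, then CellTiter-Glo added for 30 min at room temperature before luminescence reading. Line: DT40 Tdp1-/- complemented with hTDP1; camptothecin omitted.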
% is set by controls: 0 for no effect and ±100 for the full control effect; potency is the fitted concentration of half-maximal effect; tags give direction and shape of the fitted curve.

Row | Structure (SMILES) | Potency | activity change, negative = growth inhibition
1 | CCCCCCCCN1C(=O)[C@H](CC(=O)NCCC(C)C)C[C@@]2(C(=O)OCC)CCCC=C12 | active: 11.6 µM | 
2 | CC(=O)Nc1nnc(-c2c(-c3c(Cl)cccc3Cl)noc2C)o1 | inactive | 
3 | Cc1cccc(CNc2ccnc(-c3ccoc3)n2)c1 | inconclusive [inhibitor, single point] | 
4 | COc1cccc(NC(=O)CCc2nc(-c3ccccc3F)no2)c1 | inconclusive [inhibitor, single point] | 
5 | COc1ccc(NC(=O)CCNC(=O)c2ccco2)cc1Cl | inactive | 
6 | O=C(c1ccoc1)N1CCCC(N2CCN(c3cccc(Cl)c3)CC2)C1 (stereo not drawn) | inactive | 
7 | O=C(Nc1ccc(/C=C/c2nc3ccccc3o2)cc1)c1c(F)cccc1F | inconclusive [inhibitor, single point] | 
8 | OCCOCCn1c(C(CO)Nc2nc(-c3ccccc3Br)cs2)nc2ccccc21 (stereo not drawn) | inactive | 
9 | COc1ccc(NC(=O)COc2ccccc2C(N)=O)cc1S(=O)(=O)N1CCCCC1 | inconclusive [inhibitor, single point] | 
10 | O=C(c1ccco1)N1CCN(S(=O)(=O)c2ccc3c(c2)OCCO3)CC1 | inconclusive [inhibitor, partial curve] | 
11 | COc1cccc(NC(=O)CSC2=Nc3ccccc3C3=NC(CC(=O)NCc4cccs4)C(=O)N23)c1 (stereo not drawn) | inconclusive [inhibitor, partial curve] | 
12 | COc1ccc(C2c3ccc(O)cc3Oc3ncn4nc(-c5cccnc5)nc4c32)cc1OC (stereo not drawn) | active: 11.6 µM | 
13 | CCOC(=O)Cc1csc(NC(=O)Nc2ccc(F)cc2)n1 | active: 18.4 µM | 
14 | Cc1cnc(C(=O)N(CC(C)C)c2c(N)n(CC(C)C)c(=O)[nH]c2=O)cn1 | inactive | 
15 | CCCn1c(N)c(C(=O)CN(C)CC(=O)Nc2ccc(F)cc2)c(=O)[nH]c1=O | inactive | 
16 | COc1ccc(C(=O)N2CCCC(c3cc(C(=O)NCc4ccccc4)no3)C2)cc1 (stereo not drawn) | inconclusive [inhibitor, partial curve] | 
17 | COc1ccc(Cn2c(CNC(=O)Cc3cccc([N+](=O)[O-])c3)nc3cccnc32)cc1 |  | inconclusive: -30.4% [inhibitor]
18 | COc1ccc(Cl)cc1NC(=O)Cn1c(C)csc1=O | inactive | 
19 | COC(=O)c1ccc(OC(=O)c2ccccn2)cc1 | inactive | 
20 | COc1ccc(NC(=S)NC(NC(=O)c2cccc(Cl)c2)C(Cl)(Cl)Cl)c([N+](=O)[O-])c1 (stereo not drawn) | inconclusive [inhibitor, single point] | 
21 | CCn1c(=O)n(CC(=O)NCC2CCCO2)c(=O)c2c3c(sc21)COC(C)(C)C3 (stereo not drawn) | inactive | 
22 | O=C(C1CCCCC1)N1C[C@@H](O)[C@H](n2cc(-c3ccc(F)cc3)nn2)C[C@@H]1c1ccc(Cl)cc1 | inconclusive [inhibitor, single point] | 
23 | CCOC(=O)N1CCN(S(=O)(=O)c2ccc(C(=O)N(CCCN(C)C)c3nc4ccc(CC)cc4s3)cc2)CC1 | inconclusive [inhibitor, single point] | 
24 | Cc1cccc(N2CCN(C(=O)c3cc4c(=O)[nH]c5ccc(C)cc5c4s3)CC2C)c1 (stereo not drawn) | inconclusive [inhibitor, single point] | 
25 | CC(C)C(=O)N1CCN(c2ccccc2NC(=O)c2cccc(Cl)c2)CC1 | active: 16.4 µM | 

Row | Structure (SMILES) | Potency | activity change, negative = growth inhibition
26 | Cc1ccc(S(=O)(=O)N2C[C@@H]3[C@H]4CC[C@H](C4)[C@@H]3[C@@H](C)[C@@H]2c2cccn2Cc2ccccc2)cc1 | inconclusive [inhibitor, partial curve, poor fit] | 
27 | c1ccc(Oc2ccccn2)cc1 | inactive | 
28 | O=C(O)CN1C(=O)NC2(CCCc3ccccc32)C1=O (stereo not drawn) | inactive | 
29 | CCCCn1c(N)c(C(=S)NC(=O)CC(C)C)c(=O)n(C)c1=O | inconclusive [inhibitor, single point] | 
30 | CC(NC(=O)C1CCCN(C(=O)c2ccc(Cl)cc2)C1)c1cccc(C(F)(F)F)c1 (stereo not drawn) | inconclusive [inhibitor, single point] | 
31 | CC(NC(=O)[C@H](C)NC(=O)[C@@H]1CSC2c3ccccc3C(=O)N21)c1ccccc1 (stereo partly drawn) | inactive | 
32 | COc1ccccc1NC(=O)c1cnc(SC)nc1 | inactive | 
33 | Cc1c(CCC(=O)O)c(=O)oc2cc3occ(-c4ccc(Cl)cc4)c3cc12 | inactive | 
34 | OC(c1ccccc1)(c1nc(-c2ccccc2)cs1)C(F)(F)F (stereo not drawn) | active: 20.6 µM | 
35 | CCOc1ccccc1N1CCN(C(=S)Nc2ccc(S(=O)(=O)Nc3ncccn3)cc2)CC1 | inactive | 
36 | O=c1[nH]c(=O)n(Cc2ccccc2)c2c1CCC2 |  | inconclusive: -16.7% [inhibitor]
37 | CN1CCCN(Cc2ccc(Cl)cc2Cl)CC1 | inactive | 
38 | CC(=O)/C(=N\Nc1ccc(C)cc1)Sc1nncn1C | inactive | 
39 | CCCCn1c(NCc2ccccn2)nc2ccccc21 | inactive | 
40 | Cc1ccc(S(=O)(=O)c2nnn3c2nc(NC2CCN(Cc4ccccc4)CC2)c2ccccc23)cc1C | active: 5.8 µM | 
41 | CC1(C(=O)NS(=O)(=O)C2CC2)CCCN(C(=O)C2(c3ccc(Cl)cc3)CCCC2)C1 (stereo not drawn) | active: 11.6 µM | 
42 | COc1ccc(C(=O)NC(=S)Nc2ccc3[nH]c(=O)[nH]c3c2)cc1 | inactive | 
43 | Cc1nc2ccc(NC(=O)Cc3ccccc3F)cc2s1 | inconclusive [inhibitor, single point] | 
44 | Clc1ccc(/C=C\c2nccc3c2[nH]c2ccccc23)cc1 | inconclusive [inhibitor, single point] | 
45 | COc1cc(OC)c(OC)cc1CNc1cc(C)ccc1OC | inconclusive [inhibitor, single point] | 
46 | CC1=C(C(=O)Nc2ccccc2C)C(c2cccs2)n2nc(SCc3cc(C)ccc3C)nc2N1 (stereo not drawn) | active: 5.8 µM | 
47 | Cc1cc(CCCCCCCCc2cc(C)cc(=O)o2)oc(=O)c1 | active: 16.4 µM | 
48 | Cc1cccc(C)c1NC(=O)CS(=O)CC(=O)NC1CCN(Cc2ccccc2)CC1 (stereo not drawn) |  | inconclusive: -36.5% [inhibitor]
49 | O=c1c(N2CCc3ccccc3C2)csc2ccc(F)cc12 | inconclusive [inhibitor, single point] | 
50 | COc1ccccc1C(=O)Nc1c(C(=O)c2ccccc2)oc2ccccc12 | inconclusive [inhibitor, single point] | 

Row | Structure (SMILES) | Potency | activity change, negative = growth inhibition
51 | COc1ccc(NC(=O)COc2coc(CN3CCN(c4ccccc4)CC3)cc2=O)cc1 | inconclusive [inhibitor, partial curve] | 
52 | COCC(=O)Nc1nnc(Cc2ccc(OC)c(OC)c2)s1 | inactive | 
53 | COc1ccc(NC(=S)N2CCN(C(=O)c3ccccc3)CC2)cc1 | inactive | 
54 | O=C(COC(=O)C12CC3CC(CC(O)(C3)C1)C2)Nc1ccc(OC(F)F)cc1 | inconclusive [inhibitor, single point] | 
55 | CC(C)CC(CO)N1CCN(C(=O)c2ccc(Cl)c(Cl)c2)CCC1=O (stereo not drawn) | inactive | 
56 | CC(C)NC(=O)N(C)C[C@H]1Oc2cc(C#Cc3ccc(F)cc3)ccc2S(=O)(=O)N([C@H](C)CO)C[C@H]1C | inconclusive [inhibitor, single point] | 
57 | COc1cccc(-n2cc(CNC(=O)C3CCC(=O)N(C4CC4)C3)cn2)c1 (stereo not drawn) | inactive | 
58 | CC1(C(=O)NS(=O)(=O)c2ccc(F)cc2F)CCN1C(=O)CC1CCCC1 (stereo not drawn) | inactive | 
59 | COc1ccc(Cl)cc1NC(=S)NCc1cccs1 | inactive | 
60 | CCCCNc1nc2ccccc2nc1NS(=O)(=O)c1ccc(F)cc1 | inconclusive [inhibitor, single point] | 
61 | C[C@@H]1CCCCO[C@H](CN(C)S(=O)(=O)c2ccccc2)[C@@H](C)CN([C@H](C)CO)C(=O)c2cc(NC(=O)Cc3ccccc3)ccc2O1 | inconclusive [inhibitor, partial curve, poor fit] | 
62 | O=C(CCCn1c(=O)c2cccn2c2cccnc21)Nc1ccccc1C(F)(F)F | inactive | 
63 | CCn1ncc([N+](=O)[O-])c1C(=O)Nc1cc(C)on1 | inconclusive [inhibitor, full curve, poor fit] | 
64 | O=C1N/C(=C/c2cccn2-c2ccc(F)cc2)C(=O)N1Cc1ccccc1F | inconclusive [inhibitor, single point] | 
65 | CC(=O)c1c(C)c2c(n1CCN(C)C)CCCC2 | inconclusive [inhibitor, full curve] | 
66 | CCCCCCCCCCCCCCCC[n+]1cccc2ccccc21 | active: 0.231 µM | 
67 | O=C(NCCc1c[nH]c2ccccc12)C(F)(F)F | inconclusive [inhibitor, single point] | 
68 | c1ccc(CSc2nnc(-c3ccco3)c(-c3ccco3)n2)cc1 | inconclusive [inhibitor, partial curve] | 
69 | Cc1ccc(CNC(=O)c2c(-c3ccc(Br)cc3)noc2C)o1 | inconclusive [inhibitor, single point] | 
70 | COCC(=O)Nc1ccc2c(c1)[C@@H]1C[C@H](CC(=O)NCc3ccccc3)O[C@@H](CO)[C@@H]1O2 | inconclusive [inhibitor, partial curve, poor fit] | 
71 | CCOc1ccccc1NC(=O)C1=C(C)Nc2ncnn2C1c1sccc1C (stereo not drawn) | inconclusive [inhibitor, single point] | 
72 | CC(C)N(Cc1nc(-c2ccc(Cl)cc2)no1)C(=O)CN(C)S(=O)(=O)c1ccc(Cl)cc1 | inconclusive [inhibitor, single point] | 
73 | Cn1c(=O)oc2cc(S(=O)(=O)Nc3ccc(F)cc3)ccc21 | inactive | 
